About 540 (0.36%) of roughly 150,000 compounds showed an effect of 50% or more. The list shows a part of the results.
test system: Plasmodium falciparum; assay: Primary screen in NF54 nanoGlo assay, in single point, at 2uM, 72h; a lower Z score goes with more inhibition; format: functional, Erythrocyte; conditions: timepoint 72 hour

SMILES	% Inhibition [%]	Z score
CC=Cc1ccc(OCC(=O)N(CCOC)c2c(N)n(CCCC)c(=O)[nH]c2=O)c(OC)c1	-9	0.89
CC1(C)CC[C@H](NC(=O)c2cc3c(=O)[nH]cnc3cn2)c2ccccc21	3	-0.59
O=C(c1ccc2ccccc2n1)N1CC[C@H](Cc2nnc(-c3ccccc3)o2)C1	-19	2.77
Cn1nc2n(c1=O)C[C@@H](C(=O)NCc1nc3c(s1)CCCC3)CC2	-15	2.06
COc1ccccc1C(=O)N[C@H](C(=O)NCc1n[nH]c(C)n1)C(C)C	10	-1.59
CC(C)CN1CCN(C(=O)c2cn3cc(Cl)ccc3n2)CC1	-6	0.86
Cc1cc(CNc2cc(Cl)ccc2C(=O)N2CCCCC2)no1	11	-1.72
O=C(c1ccc(Cl)cc1-n1cnnn1)N1CC[C@@]2(O)CCCC[C@H]2C1	-5	0.56
CC[C@H]1OCC[C@@H]1NS(=O)(=O)c1cc(C)cs1	13	-1.59
CN(C)C(=O)CCN(Cc1nccn1C)C1CC1	3	-0.6
CCC(F)(F)C(C)(C)CS(=O)(=O)N1CCC[C@H](N(C)C)CC1	-1	0.09
Cc1noc(-c2c(C)sc(C)c2S(=O)(=O)NCc2ccccc2)c1C	-7	1.25
O=C(Cn1ncccc1=O)Nc1ccnn1C1CCCC1	-11	2.09
Cc1nc(NC2CC2)sc1C(=O)NC1CCCC1	-12	1.65
CCn1nc(C(=O)NC[C@H](Cc2ccc3ccccc3c2)C(=O)O)ccc1=O	-8	0.92
O=C(NCc1cccc(C(=O)N2CCCC2)c1)NC1CCCCC1	-12	1.56
CC(C)Cc1noc(CN(C)[C@@H](C)C(=O)Nc2nccs2)n1	-5	1.04
COc1cc(C)c(S(=O)(=O)N2CCO[C@H](C)[C@H]2C(N)=O)cc1Cl	-3	0.45
CC[C@](C)(NCc1cc2ccccc2s1)c1nc(C)cs1	-10	1.52
Cc1nc2c(c(=O)n1CC(=O)Nc1ccccc1)CCN(Cc1ccccc1)C2	31	-3.52
Cc1ccc(-c2nc(C(=O)N3CCN(Cc4ccc5c(c4)OCO5)CC3)no2)cc1	-9	0.85

SMILES	% Inhibition [%]	Z score
Cn1ccnc1[C@@H](CC(=O)NCCC(C)(C)C(=O)O)C(F)(F)F	17	-2.03
Cc1nc(CN2CC[C@@]3(CCCN(C(=O)OCC(C)(C)C)C3)C2)c[nH]1	-3	0.66
COc1ccc(-c2cnc3ncnn3c2NCc2cc(F)cc(F)c2)cc1OC	-15	2.22
O=C(CC1CCCC1)Nc1cnc2c(c1)CCC2	-7	1.07
Cc1ccc(CN(c2ccc(C(=O)N3CCCCCC3)cc2)S(C)(=O)=O)cc1	1	-0.14
Cc1cccc(C2c3cc(OC(C)C(=O)NCc4cccc(F)c4)ccc3CCN2C(=O)c2ccccc2)c1 (stereo not drawn)	-23	2.18
COCc1nc(C)c(CNC(=O)[C@]2(C)CCCO2)s1	5	-0.64
CC[C@H](NC(=O)c1cc(C)ccc1OCCN)c1nccs1	-6	1.29
CC1CC(C)CN(S(=O)(=O)c2ccc(F)c(C(=O)NC(c3ccccc3)c3ccccc3)c2)C1 (stereo not drawn)	2	-0.19
COc1ccc([C@@]2(CC(=O)N(C)C3CCOCC3)CC(=O)N(C3CCCC3)C2=O)cc1	12	-1.57
CCCCCNc1ccccc1C(=O)O	-14	1.44
CN1CCCC2(CCN(C(=O)NCCc3ccccc3)CC2)[C@H]1C(=O)N1CCCC1	-4	0.84
O=C(NCc1c(F)cccc1Cl)[C@H]1CC(=O)N(Cc2ccncc2)C1	0	-0.05
COc1cccc(CN2CC[C@@](C)(O)[C@H](N3CCCC3)C2)c1OC	7	-0.91
O=C(Nc1nc(CC2CC2)ns1)c1cnn(CCF)c1	-7	0.89
O=C(NC[C@H](O)c1ccc2ccccc2c1)c1cc(F)c(O)c(F)c1	-17	2.09
Cc1nc(N2CCCC2)c2c(C(=O)Nc3cc(F)ccc3F)c(C)oc2n1	-6	0.87
Cc1ccc2nc3c(n2c1)[C@@H](c1cc(Cl)c(C)c(Cl)c1)CC(=O)NC3	3	-0.62
O=C(c1cc2ccccc2cc1O)N1CCC(CO)(CN2CCCC2)CC1	11	-1.1
COc1ccc(Cn2nc(C)cc2NC(=O)NCc2nccn2C)cc1OC	-7	0.98
C[C@@H](CCc1ccccc1)CNCc1ccc(C(=O)O)c(C2CC2)n1	-12	1.08

SMILES	% Inhibition [%]	Z score
CCCCC(=O)c1ccccc1C(=O)c1ccc2[nH]c(NC(=O)OC)nc2c1	-17	2.14
COc1nc(C)c(C(=O)N(C)Cc2nc3ccccc3c(=O)[nH]2)s1	-9	1.12
Cc1ccnc(NS(=O)(=O)c2cc(-c3nc(C)c(C(=O)N4CCC(C)CC4)s3)n(C)c2C)c1	-13	1.42
CN(CCCNC(=O)c1c(N2CCCC2=O)c2cc(F)ccc2n1C)C1CCCCC1	0	-0.02
c1nc(NCc2cn3c(n2)CCCC3)c2sccc2n1	-12	1.53
Cc1nonc1CC(=O)NCCc1cnn(-c2ccccc2)c1	-4	0.5
CCc1ccc([C@@H]2C[C@H](c3ccccc3)n3nnnc3N2)cc1	1	-0.25
C=C(C)CN(CC)C(=O)[C@@H]1C[C@H](NC(=O)C2CCCCC2)CN1C	-3	0.4
COCc1ncc(C)n1CC1CN(C(=O)C2CC=CC2)C1	8	-1.08
C[C@@H](Cc1nnc(NC(=O)c2ccco2)s1)c1ccccc1	-6	1.09
CCOc1cc2c(cc1CNCCCc1csc(N)n1)CCC2	-2	0.34
O=C(NCc1ccccc1)c1cn2ccncc2n1	-7	0.8
COCCOc1cccc(C(=O)N[C@H](C(=O)OC(C)(C)C)c2ccccc2)c1	-4	0.8
O=C(NCC(O)c1ccccc1Cl)[C@H]1CCCCN1 (stereo partly drawn)	-2	0.28
CCC(CC)C(=O)Nc1cc(C(=O)OC)cc(C(=O)OC)c1	3	-0.4
CN(CC1CCC1)C(=O)c1sccc1C1CC1	-7	0.96
O=C(CCc1ccco1)NCC1(c2ccccc2Cl)CCOCC1	-17	1.54
Cc1sc([C@@H]2CCCO2)nc1-c1ccc2c(c1)CC(=O)N2C	3	-0.33
CCN(CC)c1ccc(CNc2cncc(CO)n2)cc1F	-11	1.76
CCN(C(=O)NCc1ccc(C)nc1OC)[C@@H](C)CS(C)(=O)=O	8	-1.04
O=C(NCc1cccnc1)NCC1(c2ccccc2)CC1	4	-0.47

SMILES	% Inhibition [%]	Z score
CCCNC(=NCCc1cccs1)NCc1nc(C2CC2)no1	-2	0.27
CCNC(=O)N1CC[C@H](CCOc2ccccc2)C1	-7	1.08
Fc1ccccc1CN1CCC(CNc2ccc3nnnn3n2)CC1	-18	3.47
CC1(C)Oc2ccccc2O[C@]1(O)c1ccc2ccccc2n1	12	-1.19
COc1cccc(COCC(=O)N[C@H](c2ccc(F)cc2)C(C)C)c1	-3	0.26
CN1C[C@@H](CNC(=O)CCCc2ccc(C(C)(C)C)cc2)CC1=O	-10	1.45
O=C(N[C@H]1CCOC1)c1ccccc1N1CCS(=O)(=O)CC1	7	-1.39
Cc1ccc(-c2c(C(=O)N3CCN(C(C)C)CC3)nc3ccccn23)cc1	-18	2.98
OCC[C@H]1COCCN1c1ncc(Cl)cn1	10	-1.28
Cc1cc(C)c(-c2cc(C(=O)N(CCC(=O)N3CCCCC3)CC(C)C)no2)c(C)c1	-28	2.51
CCN1C[C@@H](C(=O)N2CCN(Cc3ccncc3)CC2)CC1=O	-6	0.73
Cc1cc(S(=O)(=O)N2CC3(CCC3(F)F)C2)sc1C	-11	1.94
Cc1cc(CN2CCN(C(=O)[C@H](C)n3cnc4c(N)ncnc43)CC2)on1	-6	1.12
CN1CCC(n2nccc2NC(=O)c2cnn(Cc3ccccc3)c2)CC1	-11	1.62
Cc1ccc(C(=O)N2CCC(n3ccnc3-c3ncc[nH]3)CC2)cc1	5	-0.87
COc1ccccc1OC/C=C/Cn1ccnc1	-9	0.93
Cc1ccc(-c2nn(-c3ccccc3)cc2C(=O)N2CC[C@H](N)C2)o1	-10	0.86
CCC(C)CN1C(=O)C(CC(C)C)NC12CCN(C(=O)c1ccc(C)cc1)CC2 (stereo not drawn)	-10	1.39
O=C(Nc1ccc2c(c1)OCO2)c1ccc2c(c1)C(=O)N(Cc1ccncc1)C2=O	0	0.05
CN(Cc1cc(C2CC2)nc2ccccc12)C1CCOCC1	-16	1.92
CCn1ccnc1CNc1nc2cc(Cl)ccc2n1C	-8	0.82
